Reference: the supplement of paper PMC8047034
Where a name gives a salt, the structure may show the parent alone. This is one part of the list. Most values come without repeats; read them as rough.

Legend:
OVCAR4 = assay: log2 surviving fraction (library drug vs vehicle, or drug + carboplatin vs carboplatin alone; relative to plate median); ovarian cancer lines: OVCAR4 is platinum-sensitive and Ov4Carbo platinum-resistant; higher = more cell survival; conditions: library drug concentration 10 µM, 7 days
Ov4Carbo = assay: as above; conditions: library drug concentration 10 µM, 7 days

Compound	log2 surviving fraction (OVCAR4; carboplatin co-treatment 0 µM)	log2 surviving fraction (OVCAR4; carboplatin co-treatment 5 µM)	log2 surviving fraction (Ov4Carbo; carboplatin co-treatment 0 µM)	log2 surviving fraction (Ov4Carbo; carboplatin co-treatment 5 µM)
CCCC(C(=O)OCCN(CC)CC)(c1ccccc1)c1ccccc1 [Proadifen HCl]	-9.56	-1.63	-2.16	-2.3
O=C(NCCO[N+](=O)[O-])c1cccnc1 [Nicorandil (Ikorel)]	-0.158	-0.117	-0.391	1.02
O=C1OC(CN2CCOCC2)CN1/N=C/c1ccc([N+](=O)[O-])o1 (stereo not given) [Furaltadone HCl]	-1	-0.441	-0.583	-1.42
C[C@H]1c2cccc(O)c2C(=O)C2=C(O)[C@]3(O)C(=O)C(C(N)=O)=C(O)[C@@H](N(C)C)[C@@H]3[C@@H](O)[C@@H]21 [Doxycycline HCl]	-0.966	-0.375	0.404	0.275
CCCCC1=NC2(CCCC2)C(=O)N1Cc1ccc(-c2ccccc2-c2nnn[nH]2)cc1 [Irbesartan (Avapro)]	1.36	0.537	-1.83	0.344
CC(Oc1c(Cl)cccc1Cl)C1=NCCN1 (stereo not given) [Lofexidine  HCl]	-0.521	1.71	-0.312	0.815
OCCN(CCO)c1nc(N2CCCCC2)c2nc(N(CCO)CCO)nc(N3CCCCC3)c2n1 [Dipyridamole (Persantine)]	-0.599	-0.41	-0.861	-0.378
CC(C)CN(C[C@@H](O)[C@H](Cc1ccccc1)NC(=O)O[C@H]1CO[C@H]2OCC[C@H]21)S(=O)(=O)c1ccc(N)cc1 [Darunavir Ethanolate (Prezista)]	0.829	0.0925	0.578	0.0192
CN1[C@@H]2CC[C@H]1C[C@@H](OC(=O)[C@H](CO)c1ccccc1)C2 [Hyoscyamine (Daturine)]	0.328	1.25	0.171	0.748
CCCCN1CCCCC1C(=O)Nc1c(C)cccc1C (stereo not given) [Bupivacaine hydrochloride (Marcain)]	-0.321	-0.104	-0.277	-0.307
NC(=O)C(c1ccccc1)(c1ccccc1)[C@@H]1CCN(CCc2ccc3c(c2)CCO3)C1 [Darifenacin HBr]	-2.01	-1.82	-3.83	-2.44
C[N+](C)(C)CCCCCCCCCC[N+](C)(C)C [Decamethonium bromide]	0.032	0.0217	-0.494	-1.59
CCCC(CCC)C(=O)O [Divalproex sodium]	0.0124	-0.147	0.612	0.291
CC(C)(OCc1nn(Cc2ccccc2)c2ccccc12)C(=O)O [Bindarit]	1.24	0.344	0.493	0.267
Clc1ccc2c(c1)CCc1cccnc1C2=C1CCNCC1 [Desloratadine]	-5.75	-4.57	-5.24	-4.76
NC(=O)OCC(COC(N)=O)c1ccccc1 [Felbamate]	0.451	0.68	-0.0687	0.637
CC(C)c1nc(CN(C)C(=O)N[C@@H](CCN2CCOCC2)C(=O)N[C@H](CC[C@H](Cc2ccccc2)NC(=O)OCc2cncs2)Cc2ccccc2)cs1 [Cobicistat (GS-9350)]	-1.4	-1.9	-2.65	-2.16
CCCCCCCN(CC)CCCC(O)c1ccc(NS(C)(=O)=O)cc1 (stereo not given) [Ibutilide fumarate]	-1.08	-1.43	-1.15	-1.48
NC(=O)N/N=C/c1ccc([N+](=O)[O-])o1 [Nitrofurazone (Nitrofural)]	1.29	0.817	-1.22	-0.363
COC(=O)C1=C(C)NC(C)=C(C(=O)OCCN2CCN(C(c3ccccc3)c3ccccc3)CC2)C1c1cccc([N+](=O)[O-])c1 (stereo not given) [Manidipine (Manyper)]	-6.01	-5.01	-5.72	-4.95
C=CC[C@@H]1/C=C(\C)C[C@H](C)C[C@H](OC)[C@H]2O[C@@](O)(C(=O)C(=O)N3CCCC[C@H]3C(=O)O[C@H](/C(C)=C/[C@@H]3CC[C@@H](O)[C@H](OC)C3)[C@H](C)[C@@H](O)CC1=O)[C@H](C)C[C@@H]2OC [FK-506 (Tacrolimus)]	-1.11	1.58	-0.0473	-1.65
O=C1c2cccc3c2[C@H](CCC3)CN1[C@@H]1CN2CCC1CC2 [Palonosetron HCl]	-1.74	-0.705	-1.52	-1.36
CN1CCN(CCCN2c3ccccc3Sc3ccc(C(F)(F)F)cc32)CC1 [Trifluoperazine 2HCl]	-2.55	-1.42	-4.05	-3.61
Oc1ccc(OC2CCCCO2)cc1 (stereo not given) [Deoxyarbutin]	-2.02	-1.14	-1.85	-1.7
CN(C)CCC(c1ccc(Cl)cc1)c1ccccn1 (stereo not given) [Chlorpheniramine Maleate]	-0.234	0.261	-0.928	0.0721
